Reference: PubChem BioAssay AID493208 (National Center for Advancing Translational Sciences (NCATS), 2011)
Hit rate of the full screen: of about 44,000 compounds, about 340 (0.77%) were called active. Another 5% or so got no clear call; they are omitted. Calls follow the shape of the dose curve; as a rule, active = well fitted inhibition curve with a large enough effect; inconclusive = small, poorly fitted or top-dose-only effect; inactive = flat fitted curve, though single readings scatter. The list shows a part of the results.

Assay: Acumen qHTS Assay for Inhibitors of the mTORC1 Signaling Pathway in MEF (Tsc2-/-, p53-/-) Cells: Sytravon; also: nearly all actives have a fitted effect of over 50% in size
Conditions: phospho-rpS6 immunofluorescence/PI, 24 h; series mostly up to 38.3 µM; activity change, negative = inhibition: at the top concentration
Procedure, shortened: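 Read-out: phospho-S6 Alexa-488 intensity over PI intensity per well, scored as % active cells using thresholds from rapamycin (7.5 nM) and DMSO controls. Tsc2-/-, p53-/- MEFs exposed to compound for 24 h; PI cell count recorded as viability.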
With CCCC(=O)c1cc2c(cc1NC(=O)c1ccccc1F)OCCO2 the “activity change, negative = inhibition” value was inactive: 0.804%.
With COc1cccc(CNC(=O)C2CCCN(S(=O)(=O)c3ccc4c(ccn4C)c3)C2)c1OC (configuration not stated) the “activity change, negative = inhibition” value was inactive: 0.796%.
With O=C(Cn1c(=O)n(CCCS(=O)(=O)C2CCCCC2)c(=O)c2ccccc21)Nc1ccccc1F the “activity change, negative = inhibition” value was inactive: -9.83%.
With Cc1cc(C(=O)Nc2cccc(C(F)(F)F)c2)c2c(C)nn(-c3cccc(F)c3)c2n1 the “activity change, negative = inhibition” value was inactive: -2.75%.
In the case of Cc1nn2c3c(cnc2c1-c1ccc(F)cc1)C(=O)CC(c1ccccc1)C3 (configuration not stated), the “activity change, negative = inhibition” value is reported as inactive: 1.53%.
In the case of O=S(=O)(NCCc1csc2nc(-c3ccc(F)cc3)nn12)c1ccc2c(c1)OCCO2, the “activity change, negative = inhibition” value is reported as inactive: 0.362%.
In the case of CC(=O)Nc1ccc(NC(=O)CC(C)n2ccc(C)n2)cc1 (configuration not stated), the “activity change, negative = inhibition” value is reported as inactive: -18.3%.
For Cc1cc(C)c(-c2csc(-c3cc4ccccc4oc3=O)n2)cc1C, the “activity change, negative = inhibition” value was inactive: 12.1%.
In the case of CCCN1CCN(CCNC(=O)Nc2cc(Cl)c(OC)cc2OC)CC1, the “activity change, negative = inhibition” value is reported as inactive: -2.57%.
In the case of O=C(Nc1nnc(N2CCCC2)s1)Nc1cc(F)ccc1F, the “activity change, negative = inhibition” value is reported as inactive: -0.272%.
In the case of COc1ccc(NC(=O)CCn2nc(-c3ccc(Cl)cc3)c3ccccc3c2=O)cc1, the “activity change, negative = inhibition” value is reported as inactive: -4.82%.
With O=C(NCCc1ccccc1)c1c2c(nc3ccccc13)C(=O)N(C1CCCCC1)C2 the “activity change, negative = inhibition” value was inactive: -5.78%.
With Cc1oc(-c2cccc(Cl)c2)nc1CN1CCC(C(=O)NCc2ccc(F)cc2)CC1 the “activity change, negative = inhibition” value was inactive: -10.5%.
With CC(=O)c1cccc(NC(=O)C2CCN(c3nnc(-n4cccc4)s3)CC2)c1 the “activity change, negative = inhibition” value was inactive: -8.17%.
With COc1cccc(NC(=O)Cc2ccc(NC(=O)N3CCCCc4ccccc43)cc2)c1 the “activity change, negative = inhibition” value was inactive: 1.28%.
With CCOC(=O)c1c(-c2ccccc2)oc2ccc(OCc3ccc(C)cc3)cc12 the “activity change, negative = inhibition” value was inactive: 4.66%.
For Cc1cc2c(n1-c1ccc(C(=O)NCc3cccc(Br)c3)cc1)CCC(C)C2 (configuration not stated), the “activity change, negative = inhibition” value was inactive: 0.0281%.
In the case of Cc1cccc(-c2nc3c4ccccc4n(CC(=O)Nc4cc(F)ccc4F)c(=O)n3n2)c1, the “activity change, negative = inhibition” value is reported as inactive: 1.79%.
With Cc1ccc(N2C(=O)CSC23C(=O)Nc2ccccc23)cc1F (configuration not stated) the “activity change, negative = inhibition” value was inactive: -10.4%.
For CCOc1ccc(C(=O)Nc2c(C)nc(Nc3ccccc3)nc2Nc2ccccc2)cc1OCC, the “activity change, negative = inhibition” value was inactive: -2.07%.
In the case of COc1ccc(C(=O)Cn2c(=O)n3nc(CCn4nc(C)cc4C)nc3c3cc(OC)c(OC)cc32)cc1, the “activity change, negative = inhibition” value is reported as inactive: 0.0107%.
For COc1ccc(S(=O)(=O)Nc2c(C)n(C)n(-c3ccccc3)c2=O)cc1Br, the “activity change, negative = inhibition” value was inactive: -4.95%.
For CC(C)Nc1cc(N2CCN(C3CCCCC3)CC2)c2noc3c2c1C(=O)c1ccccc1-3, the “activity change, negative = inhibition” value was inactive: 2.42%.
In the case of COc1ccc(CCNc2nc(-c3ccccc3OC)cc(C(F)(F)F)n2)cc1OC, the “activity change, negative = inhibition” value is reported as inactive: -14.8%.
With COc1ccccc1N1CCN(C(=O)CSc2nc(C)cc(=O)[nH]2)CC1 the “activity change, negative = inhibition” value was inactive: 6.02%.
For O=C(c1ccc(Br)cc1)N1CCC(c2nc3ccccc3s2)CC1, the “activity change, negative = inhibition” value was inactive: -2.35%.
For CCOc1ccc(CNC(=O)C(C)n2ncn3cccc3c2=O)cc1 (configuration not stated), the “activity change, negative = inhibition” value was inactive: 0%.
For CCOC(=O)c1[nH]c(C)c(CCC(=O)Nc2ccc(C)cc2Cl)c1C, the “activity change, negative = inhibition” value was inactive: 0.735%.
In the case of CCOc1ccccc1CNC(=O)C1=C(C)C(=O)OC12CCN(C(C)=O)CC2, the “activity change, negative = inhibition” value is reported as inactive: -7.98%.
In the case of Cc1ccc2c(c1)c1c(c(=O)n(-c3ccccc3C)c(=O)n1Cc1cccc(F)c1)n2C, the “activity change, negative = inhibition” value is reported as inactive: 0.767%.
In the case of Cc1ccc(Cl)cc1NC(=O)C(NS(=O)(=O)c1ccc2c(c1)CCC(=O)N2)c1ccccc1 (configuration not stated), the “activity change, negative = inhibition” value is reported as inactive: 1.1%.
In the case of Cc1cccc(NC(=O)CC2C(=O)OCCN2Cc2ccccc2)c1 (configuration not stated), the “activity change, negative = inhibition” value is reported as inactive: -0.521%.
In the case of CCc1ccc(NCc2cc3cc(OC)c(OC)cc3n(CC(=O)Nc3ccc(F)cc3)c2=O)cc1, the “activity change, negative = inhibition” value is reported as inactive: 1.59%.
For CC(C)(C)C(=O)Nc1ccc2nc(SCc3ccccc3)sc2c1, the “activity change, negative = inhibition” value was inactive: -20.7%.
With CC1=C(c2ccc(F)cc2)S(=O)(=O)NC1=NCc1ccccc1Cl the “activity change, negative = inhibition” value was inactive: -10.8%.
For COc1cccc(CNC(=O)CCn2c(=O)c3cccn3c3cccnc32)c1, the “activity change, negative = inhibition” value was inactive: 5.51%.
For Cc1ccccc1C(=O)NC(=O)Nc1ccc(-n2nc(C(F)(F)F)cc2C(F)(F)F)cc1, the “activity change, negative = inhibition” value was inactive: 7.32%.
For COc1ccc2cc(CNc3ccccc3)c(=O)n(CC(=O)Nc3ccc(C(C)=O)cc3)c2c1, the “activity change, negative = inhibition” value was inactive: -1.38%.
For CCC(=O)N1CCc2cc(S(=O)(=O)NC(Cc3ccccc3)C(=O)NCc3cccc(OC)c3)ccc21 (configuration not stated), the “activity change, negative = inhibition” value was inactive: -12.3%.
With COc1ccc(-c2cn3nc(N4CCCC(C(=O)NCCCOC(C)C)C4)sc3n2)cc1 (configuration not stated) the “activity change, negative = inhibition” value was inactive: 2.79%.
With CCCN(CCC)c1cc(C)nc2nc(-c3ccc(Cl)cc3)nn12 the “activity change, negative = inhibition” value was inactive: 4.31%.
With Cc1ccc(C(=O)CSc2nc(-c3ccccc3)nc3c2CCCC3)cc1C the “activity change, negative = inhibition” value was inactive: 7.61%.
In the case of CC1=C(C(=O)Nc2ccc(C)cc2C)C(c2cccs2)n2nc(SCc3ccc(Cl)cc3)nc2N1 (configuration not stated), the “activity change, negative = inhibition” value is reported as inactive: 0.474%.
With Cc1cc(Oc2nc3ccccn3c(=O)c2/C=C(\C#N)c2nc3ccccc3s2)ccc1Cl the “activity change, negative = inhibition” value was inactive: 4.43%.
With COc1ccc(-c2csc3ncnc(Nc4cccc(F)c4)c23)cc1 the “activity change, negative = inhibition” value was inactive: 0%.
For CC(=O)c1ccc(NC(=O)CC2Sc3ccccc3NC2=O)cc1 (configuration not stated), the “activity change, negative = inhibition” value was inactive: -7.32%.
For Cc1nc2nc(NC(=O)C(C)C)[nH]n2c(=O)c1Cc1ccccc1, the “activity change, negative = inhibition” value was inactive: -1.14%.
For Cc1ccc(NC(=O)C2CCN(C(=O)c3cnn(-c4ccccc4)c3-n3cccc3)CC2)cc1Cl, the “activity change, negative = inhibition” value was inactive: 6.05%.
With COc1cc(Cl)c(C)cc1NC(=O)CCn1cnc2onc(-c3ccc(F)cc3)c2c1=O the “activity change, negative = inhibition” value was inactive: -2.83%.
For CC(CNC(=O)Cn1c(-c2cccs2)cc2cc(Cl)ccc21)c1ccccc1 (configuration not stated), the “activity change, negative = inhibition” value was inactive: 0.789%.
In the case of COCC(C)NS(=O)(=O)c1ccc(N2CCCCS2(=O)=O)cc1 (configuration not stated), the “activity change, negative = inhibition” value is reported as inactive: 0%.
With CCOC(=O)c1ccc(NC(=O)c2sc3nc4n(c(=O)c3c2C)CCC4)cc1 the “activity change, negative = inhibition” value was inactive: 6.34%.
In the case of CCN1C(C(=O)c2ccccc2)=C(NC(=O)c2ccc(Cl)cc2)c2ccccc2S1(=O)=O, the “activity change, negative = inhibition” value is reported as inactive: -9.44%.
For Cc1ccc2c(CC(=O)Nc3c(C(=O)c4ccc(F)cc4)oc4ccccc34)coc2c1C, the “activity change, negative = inhibition” value was inactive: 3.11%.
For CC(C)c1ccc(NC(=O)C(Cc2ccccc2)n2cccc2)cc1 (configuration not stated), the “activity change, negative = inhibition” value was inactive: -7.36%.
With CCOc1ccc(NC(=O)Cn2c(=O)n(CC(=O)NCCc3ccccc3)c(=O)c3sccc32)cc1 the “activity change, negative = inhibition” value was inactive: -24%.
For Cc1ccc(C)c(S(=O)(=O)c2cn(Cc3ccccc3)c3cc(N4CCCC4)c(F)cc3c2=O)c1, the “activity change, negative = inhibition” value was inactive: 0.0724%.
With CC(=O)N1CCCc2cc(S(=O)(=O)Nc3ccc(OC(F)(F)F)cc3)ccc21 the “activity change, negative = inhibition” value was inactive: -24.8%.
For Cc1ccc(-n2ccn(CC(=O)c3ccc(F)cc3)c(=O)c2=O)cc1C, the “activity change, negative = inhibition” value was inactive: 8.94%.
For COc1cccc(C(=O)NCCc2sc(-c3cccc(C)c3)nc2C)c1, the “activity change, negative = inhibition” value was inactive: -1.54%.
With COc1cccc(NC(=O)c2oc3ccccc3c2NC(=O)c2ccc(OC(C)C)cc2)c1 the “activity change, negative = inhibition” value was inactive: -5.08%.
With CCOC(=O)c1ccc(N2C(=O)c3[nH]nc(-c4ccccc4)c3C2c2ccc(C(C)C)cc2)cc1 (configuration not stated) the “activity change, negative = inhibition” value was inactive: -1.24%.
